Screen size: about 370,000 compounds; about 150 (0.041%) were called active. Inconclusive results, whose numbers are uncertain, are shown with a selection of clear calls. Calls come from the whole dose curve; as a rule, active = well fitted inhibition curve with a large enough effect; inconclusive = small, poorly fitted or top-dose-only effect; inactive = flat fitted curve, though single readings scatter. No potency is given beside an inconclusive call; the fits are too rough.
molecular target: Beta-lactamase (Escherichia coli (strain K12)) (UniProt P00811); experiment: qHTS Inhibitors of AmpC Beta-Lactamase (assay with detergent); conditions: AmpC hydrolysis of nitrocefin, absorbance 480 nm, 0.01% Triton; activity change, negative = inhibition: at 114 µM (top of the series); note: nearly all actives have a fitted effect of over 25% in size;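 for activity change, negative = inhibition: 0% = no-compound wells and -100% = no-enzyme wells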
How it was run: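 20 mM phosphate pH 7.0 + 0.01% (detergent screen) or 0.0001% Triton X-100; 5.3 nM AmpC reagent; cpd preinc 15 min RT; nitrocefin (800 uM stock) to start; A480 q20 s × 4 min; Activity was normalised to no-enzyme and no-compound control wells.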
Potency is the fitted concentration of half-maximal effect; tags give direction and shape of the fitted curve.

Chain of UniProt P00811 (P00811 whole entry, looked up): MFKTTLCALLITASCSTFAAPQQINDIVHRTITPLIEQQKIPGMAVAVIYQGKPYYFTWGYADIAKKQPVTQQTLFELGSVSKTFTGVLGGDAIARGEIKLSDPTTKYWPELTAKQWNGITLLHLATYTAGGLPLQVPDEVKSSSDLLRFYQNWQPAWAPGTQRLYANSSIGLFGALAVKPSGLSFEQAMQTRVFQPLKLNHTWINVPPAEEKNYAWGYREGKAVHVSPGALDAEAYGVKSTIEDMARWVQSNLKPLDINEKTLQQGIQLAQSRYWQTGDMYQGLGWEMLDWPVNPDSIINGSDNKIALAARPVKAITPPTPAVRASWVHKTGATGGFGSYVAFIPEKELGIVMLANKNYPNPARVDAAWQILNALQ

Compound | activity change, negative = inhibition | Potency
Cc1ccc(OCC(=O)N2N=C(C(F)(F)F)CC2(O)C(C)(C)C)cc1C (stereo unspecified) | inactive: -4.86% | –
COc1ccc(/C=N/Nc2ncnc3scc(-c4ccccc4)c23)cc1OC | – | inconclusive [inhibitor, full curve, poor fit]
CCOC(=O)c1cc(CC)sc1NC(=O)COC(=O)c1ccccn1 | – | inconclusive [inhibitor, full curve, poor fit]
N#Cc1c(N)c2ccccn2c1C(=O)c1ccc(Br)cc1 | inactive: -11.9% | –
CC1(C)CC(C)(c2ccc(O)cc2O)N(c2cccc(Cl)c2)C(=S)N1 (stereo unspecified) | – | inconclusive [inhibitor, partial curve]
C/C(=N\NC(=O)c1ccccc1)c1ccc(N2CCOCC2)cc1 | inactive: -5.56% | –
COc1cc(C2c3c(-c4ccccc4)n[nH]c3C(=O)N2c2ccccc2)ccc1O (stereo unspecified) | – | inconclusive [inhibitor, full curve, poor fit]
O=C(c1cc(COc2ccc(F)cc2F)on1)N1CCSCC1 | – | inconclusive [inhibitor, single point]
Cc1ccc2nc(SCC(=O)N3CC(C)OC(C)C3)nc(=O)n2c1 (stereo unspecified) | – | inconclusive [inhibitor, full curve, poor fit]
COc1cc(CNC(C)(C)CO)ccc1OCC(=O)NC(C)(C)C | – | inconclusive [inhibitor, partial curve]
CCC(C)NC(=O)c1ccc2c(=O)n3c(nc2c1)CCCCC3 (stereo unspecified) | inactive: 10.9% | –
Cc1ccc(C)c(NC(=O)C2CCCN2/C=C/C(=O)C(F)(F)F)c1 (stereo unspecified) | – | inconclusive [inhibitor, full curve, poor fit]
CNC(=O)c1nnsc1S(=O)(=O)c1ccc(Cl)cc1 | – | inconclusive [inhibitor, partial curve, poor fit]
Cc1ccccc1NC(=O)CSc1nc2[nH]c(=O)cc(O)c2s1 | – | inconclusive [inhibitor, full curve]
CC1=C(C(=O)OCC2CCCO2)C(c2ccc(C)o2)C2=C(CC(c3ccc(F)cc3)CC2=O)N1 (stereo unspecified) | – | inconclusive [inhibitor, partial curve]
NCCCC[C@@H]1NC(=O)c2cc([N+](=O)[O-])cc(F)c2NCCCC[C@@H](C(N)=O)NC(=O)[C@H](CCC(N)=O)NC1=O | – | inconclusive [inhibitor, full curve, poor fit]
CCC(C(=O)c1ccc2ncccc2c1)c1ccccc1 (stereo unspecified) | – | inconclusive [inhibitor, full curve, poor fit]
CC(C)Cc1cc(C(=O)Nc2cc(Cl)ccc2Cl)no1 | – | inconclusive [inhibitor, full curve, poor fit]
COc1ccc(OC)c(-c2cc(C(=O)Nc3cnn(Cc4ccc(Cl)cc4Cl)c3)no2)c1 | inactive: 12.8% | –
COc1ccc(C(CNC(=O)Cc2cccs2)N(C)C)cc1 (stereo unspecified) | inactive: -3% | –
COC(=O)c1cc(NC(=O)CN2C(=O)CSC2=O)ccc1Cl | – | inconclusive [inhibitor, partial curve, poor fit]
CCOc1ccc(S(=O)(=O)Nc2ccc(O)c(Sc3ncn[nH]3)c2)cc1 | – | inconclusive [inhibitor, full curve, poor fit]

Compound | activity change, negative = inhibition | Potency
CN1CCN(c2ccc(NC(=O)c3ccc(Oc4ccccc4)cc3)cc2)CC1 | inactive: -8.62% | –
CC1CCN(S(=O)(=O)c2cc(Cl)ccc2Br)CC1 | – | inconclusive [inhibitor, full curve]
CN(Cc1ccccc1)C(=O)c1cc(-c2ccc(Br)cc2)on1 | inactive: -3.48% | –
COc1cccc(C(=O)Nc2ccc3c(c2)C(=O)c2ccccc2C3=O)c1 | – | inconclusive [inhibitor, full curve, poor fit]
CC(=O)c1cccc(NC(=O)NCc2cccs2)c1 | – | inconclusive [inhibitor, full curve, poor fit]
COc1ccc([N+](=O)[O-])cc1NC(=O)Nc1ccccc1 | inactive: 1.39% | –
O=S1(=O)CCN2N=C(C34CC5CC(CC(C5)C3)C4)SC2=N1 | – | inconclusive [inhibitor, full curve]
O=C(CCS(=O)NCc1ccccc1)NCc1ccccc1 (stereo unspecified) | – | inconclusive [inhibitor, full curve, poor fit]
O=C(CCN1C(=O)c2ccccc2C1=O)NNC(=O)c1ccc(Cl)cc1Cl | – | inconclusive [inhibitor, full curve, poor fit]
CC(C#N)Sc1nc2ccccc2c(=O)n1-c1ccccc1 (stereo unspecified) | – | inconclusive [inhibitor, partial curve, poor fit]
CCCCNC(=O)C1CC(c2cccc([N+](=O)[O-])c2)=NO1 (stereo unspecified) | inactive: -11.5% | –
COc1cccc(OC)c1C(=O)Nc1ccc(S(=O)(=O)N2CCCCC2)cc1 | – | inconclusive [inhibitor, full curve, poor fit]
O=C(CC(=O)N/N=C/c1ccccc1)NCc1ccccc1 | inactive: 6.9% | –
Cc1noc(/C=C/c2ccccc2F)c1S(=O)(=O)N1CCC(C(=O)N(C)Cc2ccco2)CC1 | inactive: 3.25% | –
CCCCCn1c(C(C)NC(=O)CCC)nc2ccccc21 (stereo unspecified) | – | inconclusive [inhibitor, full curve, poor fit]
CCCCC(=O)OCc1nc(N)nc(Nc2ccccc2C)n1 | – | inconclusive [inhibitor, full curve, poor fit]
CCOC(=O)N/N=C/c1cn(Cc2ccc(Cl)cc2)c2ccccc12 | – | inconclusive [inhibitor, single point]
O=C(Nc1cccc(-c2cn3c(n2)SCC3)c1)c1ccc2ccccc2n1 | – | inconclusive [inhibitor, full curve, poor fit]
COc1cc2c(cc1OC)CN(C(=O)CSc1nc(N)c(C#N)cc1C#N)CC2 | – | inconclusive [inhibitor, full curve]
CCCCNC(=O)c1c(C)oc2ncn(CC(C)C)c(=O)c12 | inactive: -8.74% | –
CN(C)C(=O)c1ccc(NC(=O)COC(=O)C2CCN(S(=O)(=O)c3ccc4c(c3)OCCO4)CC2)cc1 | – | inconclusive [inhibitor, full curve, poor fit]
CC1(C)CC(=O)C(c2c[nH]c3ccccc23)C(=O)C1 | inactive: -9.03% | –

Compound | activity change, negative = inhibition | Potency
Cc1ccc(CNC(=O)c2cc(-c3ccccc3)nn2Cc2cc(C)no2)cc1 | – | inconclusive [inhibitor, full curve, poor fit]
CC(C)CNC(=O)CC(=O)N/N=C/c1cccs1 | – | inconclusive [inhibitor, single point]
O=C(O)c1ccccc1-c1nc2ccccc2n1-c1ccccc1 | – | inconclusive [inhibitor, partial curve]
Cc1c(C(=O)Nc2ccncc2)sc2nc(-c3ccc(F)cc3)cn12 | – | inconclusive [inhibitor, full curve]
O=S(=O)(NCc1ccccc1)c1ccc(S(=O)(=O)NCC2CCCO2)cc1 (stereo unspecified) | inactive: 8.5% | –
O=C(CSc1nc(NS(=O)(=O)c2ccccc2)cc(=O)[nH]1)Nc1ccc(F)cc1 | – | inconclusive [inhibitor, partial curve]
Cc1ccc(NC(=O)CN2CCC(NC(=O)Cc3ccccc3)CC2)c(C)c1 | – | inconclusive [inhibitor, partial curve]
CC(=O)c1cc2c(cc1NC(=O)C1CC=CCC1C(=O)O)OCO2 (stereo unspecified) | – | inconclusive [inhibitor, single point]
O=C(Nc1ccc2c(c1)OCCO2)c1cccc(S(=O)(=O)N2CCOCC2)c1 | – | inconclusive [inhibitor, full curve, poor fit]
CCOC(=O)c1cc(C#N)c(NCc2ccccc2)nc1C | – | inconclusive [inhibitor, partial curve]
Cc1ccc(C(=O)OCN2C(=O)c3ccccc3C2=O)o1 | – | inconclusive [inhibitor, full curve, poor fit]
COc1ccc(NC(=O)NNS(=O)(=O)c2cc(C)ccc2C)cc1OC | – | inconclusive [inhibitor, partial curve, poor fit]
Cc1ccc(/C=N/NC(=O)c2cc(-c3cccnc3)nc3ccccc23)cc1 | – | inconclusive [inhibitor, partial curve, poor fit]
CCOC(=O)c1c(-c2cccc([N+](=O)[O-])c2)csc1NC(=O)C1CCCCC1 | – | inconclusive [inhibitor, partial curve, poor fit]
COc1ccc(NS(=O)(=O)c2cccc(C(=O)NCc3ccccc3CN3CCCC3)c2)cc1 | inactive: 0.0072% | –
CC(=O)c1ccc(NC(=O)C(C)Sc2nnc3ccccn23)cc1 (stereo unspecified) | inactive: -8.65% | –
CCc1cc2c(=O)n(CCC(C)C)c(=S)[nH]c2s1 | – | inconclusive [inhibitor, full curve, poor fit]
O=C(c1ccc(CS(=O)c2cccc(Cl)c2)o1)N1CCOCC1 (stereo unspecified) | inactive: -4.34% | –
COc1ccc(-n2ccn(CC(=O)Nc3ccccc3OC)c(=O)c2=O)cc1 | – | inconclusive [inhibitor, full curve, poor fit]
O=C(Nc1ccc2oc(-c3cccnc3)nc2c1)c1ccc([N+](=O)[O-])o1 | inactive: -11.8% | –
COc1ccc(S(=O)(=O)N(C)CC(=O)Nc2ccccc2OC)cc1C | – | inconclusive [inhibitor, full curve, poor fit]
Fc1cc(F)cc(-c2oncc2-c2nnnn2-c2ccccc2)c1 | – | inconclusive [inhibitor, partial curve, poor fit]

Reference: PubChem BioAssay AID485294 (National Center for Advancing Translational Sciences (NCATS), 2010)
